Where a chain is given by its changes, count along the chain named.
Tests used:
[1] = test system: human CRHR1; experiment: CRH-induced luciferase reporter blocking in CHO-CRE-hCRHR1 cells; format: cell-based; details: in words
Experimental: To generate a CHO-CRE-Luciferase Reporter stable cell line, a mixture of 2 million CHO-K1 cells with 10 μg of pGL4.29/luc2P/CRE/Hygro plasmid in 100 μl of Ingenio solution was transferred into electroporation cuvettes and subjected to 1 or 2 pulses using an Electro Cell Manipulator (950 uF and 120V). The processed cells were transferred into a 6-well plate with 2 mL of Dulbecco's Modified Eagle's Medium (DMEM)/F12 with 10% fetal bovine serum (FBS). After 24 hours, selection antibiotic hygromycin at 500 μg/ml was added to the cells. […] Using matrix dilution, the pool of CHO-CRE cells was subcloned into 96-well plates. Individual stable clones were harvested when selected colonies became obvious. Positive clones were validated using a series of diluted forskolin. Validated positive clones were frozen for the future use.
To create CHO-CRE-hCRHR1,-hCRHR2,-mCRHR1, and -mCRHR2 reporter cell lines, pcDNA3.1-hCRHR1,-hCRHR2,-mCRHR1, and -mCRHR2 were introduced into CHO-CRE cells established above by electroporation as described above. Selection antibiotics hygromycin at 500 μg/ml and G418 at 1,000 μg/ml were employed. […]
50 μl of 4× serially diluted antibodies was added (8 points, ¼ diluted by growth medium) to plates containing CHO-CRE-hCRHR1 cells, and 50 μl of 4×CRH (4× is 2 nM, final is 0.5 nM) was added. […] Plates were read in a luciferase plate reader (En Vision, PerkinElmer).

[2] = target: T1, CRH (Homo sapiens, UniProt P06850); experiment: CRH ELISA binding (NT-biotin / CT-biotin CRH); details: in words
T1 construct: CRH is a 41-amino acid peptide derived by enzymatic cleavage from a 196-amino acid preprohormone
T1 sequence (P06850 154-194): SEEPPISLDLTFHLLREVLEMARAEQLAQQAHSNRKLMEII
Experimental: ELISA plates were coated with 5 μg/ml streptavidin in phosphate buffered saline (PBS) (Sigma 189730-1 mg) at 4° C. overnight or at room temperature (RT) for 2 hours. 50 μl/well was used for 96-well plates, or less for 384-well plates. After incubation, the strepavidin solution was removed and biotinylated peptide was added (ThermoFisher, biotin is at the N terminus of the peptide). Following incubation for 30 min at RT, plates were washed with 1× phosphate buffered saline (PBS)/0.1% Tween-20 and blocked with 1% milk/1% bovine serum albumin (BSA) in washing solution. Following a wash in 3×PBS/0.1% Tween-20, 50 μl of antibody was added in blocking buffer and incubated at RT for 2 hours. Plates were then washed in 3×PBS/0.1% Tween-20, and 50 μl of anti-rat IgG-HRP (horseradish peroxidase) at a 1:2,000 dilution was added and incubated at RT for 2 hours. Following a wash in 3×PBS/0.1% Tween-20, 50 μl peroxidase substrate (POD or equivalent) was added and absorbance was measured at 450 nm.
Streptavidin (Thermo, Cat: 21125) was diluted in PBS to a concentration of 2 μg/ml. […] 100 μL of ELISA stopping solution (Solarbio, Cat #: C1058) was added to terminate the reaction, and the optical density at 450 nm (OD450 nm) was determined by an ELISA plate reader (Molecular Devices, Spectra max 384 plus).

[3] = test system: wildtype female C57BL/6 mice; experiment: Wildtype mice restraint-stress model (ACTH and corticosterone); format: in vivo, mouse; details: mAb 20 mg/kg IP
Experimental: 8-10 week old wildtype female C57BL/6 mice were obtained from Charles River Laboratories. Mrap1 KO mice were obtained from Queen Mary University of London, UK. SSR125543A, a small molecule CRHR1 antagonist, was obtained from Axon Medchem (Cat #Axon 1799). Mouse Corticosterone (55-Corms-E01) and adrenocorticotropic hormone (ACTH) ELISA kits (21-ACTHU-E01) were obtained from ALPCO, USA. All procedures were carried out in accordance with the Guide for the Care and Use of Laboratory Animals of the National Institutes of Health. Protocols were approved by Charles River Laboratories Institutional Animal Care and Use Committee (IACUC).
To determine the effect of nonpainful physical restraint upon stress responses, mice were restrained in 50 ml polypropylene ventilated tubes in which the tip was cut off with a razor blade to allow the mouse to breathe easily for 15-20 minutes. A mouse was directed to the open tube and crawled in. A piece of paper towel was put behind the mouse so that it could not back out, and the cap was screwed on. The mouse was placed back in its cage, ventral size down on the bedding. This stressor is not considered painful, as mice are confined to a limited space (in a ventilated restraint tube) but not in an unnatural physical position. The investigator was present in the room during the entire procedure. At the end of the procedure, the mouse was removed by the tail. […]

[4] = test system: Mrap1 KO mice; experiment: Mrap1 KO mice constitutively high ACTH model; format: in vivo, mouse; details: single dose of mAb 20 mg/kg

B1: PR004289: Series 1 anti-CRH mAb, human IgG1 wildtype Fc, IGHV3-7/IGKV2-28 (antibody)
heavy: EVQLVESGGVLVQPGGSLRLSCAASGFIFSSYWMTWVRQAPGKGLEWVANIKQDGSEKYYVDSVKGRFTISRDNAKNSLFLQMNSLRAEDTAVYYCARTLIFDYWGQGTLVTVSS[human IgG1 constant region cut from this listing]
light: DIVMTQSPLSLPVTPGEPASISCRSSQSLLHSTGYNSLEWYLQKPGQSPQLLIYLGSNRASGVPDRFSGSGSGTDFTLKISRVEAEDVGIYYCMQTLQTPITFGQGTRLEIKRTVAAPSVFIFPPSDEQLKSGTASVVCLLNNFYPREAKVQWKVDNALQSGNSQESVTEQDSKDSTYSLSSTLTLSKADYEKHKVYACEVTHQGLSSPVTKSFNRGEC
blocking activity in human CRHR1 luciferase reporter assay (CRH-mediated luciferase expression) [1]: blocking activity

B2: PR006745: ΔPTM variant of PR006669 (antibody)
heavy: EVQLVESGGGLVQPGGSLRLSCAASGFTFSDNWMSWVRQAPGKGLEWVANIKQDASENYYVDSVKGRFTISRDNAKNSLYLQMNSLRAEDTAVYYCSRGLALWGWGQGTLVTVSS[human IgG1 constant region cut from this listing]
light: B1 light with Q6H, E17D, S37Y, E39D, I80F, S81I, I90V, T96A, I101Y, R108K
ELISA binding activities to CRH [2]: somewhat weaker

B3: PR006746: ΔPTM variant of PR006669 (antibody)
heavy: B2 heavy with A55S
light: B1 light with Q6H, E17D, S37Y, E39D, I80F, S81I, I90V, T96A, I101Y, R108K
ELISA binding activities to CRH [2]: somewhat weaker

B4: PR006152: Series 1 anti-CRH mAb (antibody)
heavy: B1 heavy with I28T, G55S
light: B1 light with S37P
restraint-induced ACTH concentration [3]: markedly inhibited | restraint-induced corticosterone concentration [3]: markedly inhibited

B5: PR302341-55: Series 10 mAb, PTM-removed humanized variant, scaled up for in vivo studies (protein)
heavy chain: QVQLVQSGAEVKKPGASVKVSCKASGYTFTDYFMKWVRQAPGQRLEWMGVINPNNADIFYNQKFKGRVTITRDTSASTAYMELSSLRSEDTAVYYCARGTDRALFAYWGQGTLVTVSS[human IgG1 constant region cut from this listing]
light chain: DVVMTQSPLSLPVTLGQPASISCRSGQSIVHSDGNTYLEWYQQRPGQSPRLLIYKVSNRFSGVPDRFSGSGSGTDFTLKISRVEAEDLGVYYCFQGSHIPWTFGGGTKVEIKRTVAAPSVFIFPPSDEQLKSGTASVVCLLNNFYPREAKVQWKVDNALQSGNSQESVTEQDSKDSTYSLSSTLTLSKADYEKHKVYACEVTHQGLSSPVTKSFNRGEC
plasma ACTH concentration in Mrap1 KO mice [4]: markedly reduced

B6: PR302341-60: Series 10 mAb, PTM-removed humanized variant, scaled up for in vivo studies (protein)
heavy chain: B5 heavy chain with N55Q, A56G
light chain: B5 light chain with G34A
plasma ACTH concentration in Mrap1 KO mice [4]: markedly reduced

Reference: patent US20250197490A1, “ANTI-CORTICOTROPIN-RELEASING HORMONE ANTIBODIES AND USE IN CONGENITAL ADRENAL HYPERPLASIA” (HBM ALPHA THERAPEUTICS, INC., priority 2021, published 2025)
